Experimental data: patent publication US20240368242A1 (SHATTUCK LABS, published 2024)
Values belong to the binder of their own block, whether it stands above or below them.

How the values were obtained:
SLC51B = target: T1, SLC51B (human, UniProt Q86UW2); experiment: microarray containing about 6,000 human membrane proteins
T1 construct: spot of the microarray of human membrane proteins; also called Solute Carrier Family 51 Beta Subunit
T1 sequence (single chain, looked up): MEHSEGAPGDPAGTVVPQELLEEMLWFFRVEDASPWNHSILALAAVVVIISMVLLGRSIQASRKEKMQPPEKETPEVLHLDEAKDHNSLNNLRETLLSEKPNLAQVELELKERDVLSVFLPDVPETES

Galectin-1 = Galectin-1 (human, UniProt P09382); experiment: as above
[1] = target: T2, human CD47 expressed on cells (HeLa/hCD47; Jurkat endogenous CD47) (human, UniProt Q08722); experiment: flow cytometry on HeLa/hCD47 cells
T2 construct: whole, on cells
Description: Cells were collected, washed, and stained with antibodies for the detection of the chimeric protein binding by flow cytometry.

Human FcγR1A = target: T3, Human FcγR1A; experiment: SPR, 250 nM analyte on human FcγR1A
T3 construct: also called hFcγR1A
T3 chain: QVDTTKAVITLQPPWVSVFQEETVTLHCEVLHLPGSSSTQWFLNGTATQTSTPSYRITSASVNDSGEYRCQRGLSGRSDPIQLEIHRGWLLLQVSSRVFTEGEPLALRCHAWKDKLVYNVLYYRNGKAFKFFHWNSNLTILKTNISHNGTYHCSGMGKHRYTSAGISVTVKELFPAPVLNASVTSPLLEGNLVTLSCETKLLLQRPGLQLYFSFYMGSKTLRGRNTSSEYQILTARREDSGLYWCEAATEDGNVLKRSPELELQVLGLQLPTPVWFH

[2] = target: recombinant human CD40 protein (human, UniProt P25942 part only); experiment: ELISA, plate-bound hCD40, detection with Goat αhCD40L and αGoat-HRP [third panel from the left]
[3] = target: T4, recombinant human CD47 protein (human, UniProt Q08722 part only, limits assumed); experiment: ELISA, plate-bound hCD47, detection with Goat αhCD172a and αGoat-HRP [second panel from the left]
T4 construct: also called hCD47

plate-bound human IgG = experiment: ELISA, plate-bound capture drawn as hFc (legend: human IgG), detection with HRP Human αIgG [first panel from the left]

Chain of Galectin-1 (P09382 2-135 limits assumed): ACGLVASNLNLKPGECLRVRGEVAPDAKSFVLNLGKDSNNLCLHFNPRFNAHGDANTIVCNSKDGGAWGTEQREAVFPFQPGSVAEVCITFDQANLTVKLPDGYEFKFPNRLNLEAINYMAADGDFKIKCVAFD
Chain of UniProt P25942 (P25942 21-193 limits assumed): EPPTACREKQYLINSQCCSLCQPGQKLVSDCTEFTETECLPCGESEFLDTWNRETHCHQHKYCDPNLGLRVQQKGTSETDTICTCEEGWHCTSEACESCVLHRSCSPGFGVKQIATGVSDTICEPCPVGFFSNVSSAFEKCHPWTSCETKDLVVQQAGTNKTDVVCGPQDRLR

binding result (SLC51B): binds | binding result (Galectin-1): binds
B1: human CSF1R-Fc-CD40L chimeric protein (Fc fusion)
chain: [sequence of about 500 residues omitted]SKYGPPCPPCPAPEFLGGPSVFLFPPKPKDQLMISRTPEVTCVVVDVSQEDPEVQFNWYVDGVEVHNAKTKPREEQFNSTYRVVSVLTVLHQDWLSGKEYKCKVSSKGLPSSIEKTISNATGQPREPQVYTLPPSQEEMTKNQVSLTCLVKGFYPSDIAVEWESNGQPENNYKTTPPVLDSDGSFFLYSRLTVDKSRWQEGNVFSCSVLHEALHNHYTQKSLSLSLGKIEGRMDHRRLDKIEDERNLHEDFVFMKTIQRCNTGERSLSLLNCEEIKSQFEGFVKDIMLNKEETKKENSFEMQKGDQNPQIAAHVISEASSKTTSVLQWAEKGYYTMSNNLVTLENGKQLTVKRQGLYYIYAQVTFCSNREASSQAPFIASLCLKSPGRFERILLRAANTHSSAKPCGQQSIHLGGVFELQPGASVFVNVTDPSQVSHGTGFTSFGLLKL

EC50 [1]: 21.5 nM | binding result (Human FcγR1A): no binding (tested: 250 nM) | EC50 [2]: 1.39 nM | EC50 [3]: 1.12 nM | EC50 (plate-bound human IgG): 9.29 nM
B2: human CD172a(SIRPα)-Fc-CD40L chimeric protein (Fc fusion)
chain: [sequence of about 350 residues omitted]SKYGPPCPPCPAPEFLGGPSVFLFPPKPKDQLMISRTPEVTCVVVDVSQEDPEVQFNWYVDGVEVHNAKTKPREEQFNSTYRVVSVLTVLHQDWLSGKEYKCKVSSKGLPSSIEKTISNATGQPREPQVYTLPPSQEEMTKNQVSLTCLVKGFYPSDIAVEWESNGQPENNYKTTPPVLDSDGSFFLYSRLTVDKSRWQEGNVFSCSVLHEALHNHYTQKSLSLSLGKIEGRMDHRRLDKIEDERNLHEDFVFMKTIQRCNTGERSLSLLNCEEIKSQFEGFVKDIMLNKEETKKENSFEMQKGDQNPQIAAHVISEASSKTTSVLQWAEKGYYTMSNNLVTLENGKQLTVKRQGLYYIYAQVTFCSNREASSQAPFIASLCLKSPGRFERILLRAANTHSSAKPCGQQSIHLGGVFELQPGASVFVNVTDPSQVSHGTGFTSFGLLKL
notes: Glycosylated; dominant dimer band on non-reduced Western blot; also called SL-172154; hCD172a(SIRPα)-Fc-CD40L
